Assay results reported in PubChem BioAssay (Tox21).
Several values for one entry are separate records, joined by “and”; a condition that tells them apart may be missing. Equal entries are not always repeated. This list was built around the results that the source calls inconclusive (neither active nor inactive); the mix of calls is not that of the screen. For some assays here: Where the call is inconclusive, the potency comes from a doubtful curve fit. A structure can be active in one record and inactive in another. Activity calls are given as the source filed them. Unless noted, calls come from the whole dose curve; as a rule, active = well fitted curve in the direction sought with a large enough effect in the repeat runs; inconclusive = weak or mixed curves; inactive = no such curve, though single readings can be large; an effect the other way counts as inactive or inconclusive.

Assays:
[1] = qHTS RealTime-Glo MT Cell Viability Assay in HepG2 cells - 16 hour (AID 1224885); note: nearly all actives have a fitted effect of over 50% in size
How it was run: (§1)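 Tox21 10K library screened in qHTS format on HepG2 cells carrying RealTime-Glo reagents. Compounds were added after a 5 h preincubation, and the luminescent signal from continuous culture was measured repeatedly during 40 h treatment.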

[2] = qHTS RealTime-Glo MT Cell Viability Assay in HEK293 cells - 24 hour (AID 1224886); note: nearly all actives have a fitted effect of over 50% in size
How it was run: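 Luminescence generated by NanoLuc from substrate produced by living HEK293 cells served as the viability signal. Each value reflects the reading at its stated time point during continuous 40 h compound exposure at 37 C.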

[3] = qHTS RealTime-Glo MT Cell Viability Assay in HEK293 cells - 8 hour (AID 1224887); note: nearly all actives have a fitted effect of over 50% in size
How it was run: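 Cells were seeded together with NanoLuc luciferase and a prosubstrate that viable cells reduce to a luciferase substrate. After a 5 h incubation at 37 C/5% CO2, compounds were added and luminescence was measured repeatedly during 40 h of treatment.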

[4] = qHTS assay to identify small molecule HDAC inhibitors (AID 1259364); note: nearly all actives have a fitted effect of over 45% in size
How it was run: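 Luminescence from a cell-permeant luminogenic class I/II HDAC substrate reports endogenous deacetylase activity in intact HCT-116 cells treated with compounds for 2 h.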

[5] = qHTS assay to identify small molecule agonists of the sonic hedgehog signaling (Shh) pathway - cell viability counter screen (AID 1259366); note: nearly all actives have a fitted effect of over 50% in size
How it was run: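 After a 4hr attachment at 37C, NIH/3T3 cells bearing an integrated Gli1-driven luciferase reporter were dosed with compounds. Treatment lasted 24hr, with the final hour including CellTiter-Fluor for a fluorescence viability measurement.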

[6] = qHTS assay to identify small molecule antagonists of the sonic hedgehog signaling (Shh) pathway - cell viability counter screen (AID 1259367); note: nearly all actives have a fitted effect of over 55% in size
How it was run: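 Cells: 3T3 Gli1-Luc, 2,000/well, 4 hr pre-incubation. Compounds in DMSO, then conditioned medium. Incubation 24 hr, 37C, 5% CO2. CellTiter-Fluor at 23 hr, 1 hr, fluorescence.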

[7] = qHTS assay to identify small molecule antagonists of the sonic hedgehog signaling (Shh) pathway (AID 1259369; calls by dose curve; note: nearly all actives have a fitted effect of over 45% in size)
How it was run: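 3T3Gli1-Luc, conditioned-medium-stimulated, 24hr cpd, 37C/5% CO2; Gli1-driven firefly Luc luminescence after 30min RT with luciferase reagent. Cells plated 4hr before cpd.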

[8] = qHTS assay to identify small molecule agonists of the androgen receptor (AR) signaling pathway in the presence of an antagonist - cell viability counter screen (AID 1259379); note: nearly all actives have a fitted effect of over 25% in size
How it was run: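 Cells: MDA-kb2 (MMTV-luc, AR and GR elements), 3,000/well, 5 hr settle. Added: nilutamide 3.0uM final, then compounds (15 conc.). Incubation: 16 hr, 37C, no CO2. Read-out: CellTiter-Fluor, 1 hr, fluorescence.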

[9] = A CellTox Green Cytotoxicity Assay to monitor cytotoxicity in HEK293 cells - 16 hour (AID 1224888); note: nearly all actives have a fitted effect of over 35% in size
How it was run: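 Nonlytic real-time cytotoxicity: HEK293 + CellTox Green reagent plated, 5 h preincubation, pintool compound addition (23 nL in DMSO), 37 C for 40 h, fluorescence measured at successive time points.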

[10] = A CellTox Green Cytotoxicity Assay to monitor cytotoxicity in HepG2 cells - 8 hour (AID 1224890); note: nearly all actives have a fitted effect of over 45% in size
How it was run: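 Read-out is fluorescence of a cyanine dye excluded from live cells that stains DNA of dead HepG2 cells, with signal proportional to cytotoxicity. Plates were read at 0, 8, 16, 24, 32 and 40 h after compound addition.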

[11] = qHTS assay to identify small molecule antagonists of the androgen receptor (AR) signaling pathway using the MDA cell line in the presence of 0.5 nM R1881 - cell viability counter screen (AID 1259242); note: nearly all actives have a fitted effect of over 45% in size
How it was run: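 Counter screen for cytotoxicity run in the same wells as the AR antagonist reporter screen: MDA-kb2 cells were treated 16 hr with test compounds and 0.5 nM R1881, then live-cell protease activity was measured by fluorescence.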

[12] = qHTS assay to identify small molecule HDAC inhibitors - cell viability counter screen (AID 1259365); note: nearly all actives have a fitted effect of over 50% in size
How it was run: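 Following a 2hr exposure of overnight-plated wild-type HCT-116 cells to DMSO-delivered compounds, CellTiter-Glo was added and luminescence recorded after 30min at room temperature.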

[13] = target: Estrogen receptor beta (Homo sapiens) (UniProt Q92731); assay: qHTS assay to identify small molecule antagonists of the estrogen receptor beta (ER-beta) signaling pathway (AID 1259378; active = well fitted inhibition curve with a large enough effect in the signal ratio in the repeat runs, not every such curve was filed as active; inconclusive = weak or mixed curves, or effect the other way; inactive = no such curve, though single readings can be large or run the other way; the % refers to the signal ratio); settings: ER-beta-UAS-bla HEK293T, beta-lactamase FRET ratio, 16 h; series mostly up to 92.4 µM
Sequence of UniProt Q92731 (Q92731 whole entry, looked up): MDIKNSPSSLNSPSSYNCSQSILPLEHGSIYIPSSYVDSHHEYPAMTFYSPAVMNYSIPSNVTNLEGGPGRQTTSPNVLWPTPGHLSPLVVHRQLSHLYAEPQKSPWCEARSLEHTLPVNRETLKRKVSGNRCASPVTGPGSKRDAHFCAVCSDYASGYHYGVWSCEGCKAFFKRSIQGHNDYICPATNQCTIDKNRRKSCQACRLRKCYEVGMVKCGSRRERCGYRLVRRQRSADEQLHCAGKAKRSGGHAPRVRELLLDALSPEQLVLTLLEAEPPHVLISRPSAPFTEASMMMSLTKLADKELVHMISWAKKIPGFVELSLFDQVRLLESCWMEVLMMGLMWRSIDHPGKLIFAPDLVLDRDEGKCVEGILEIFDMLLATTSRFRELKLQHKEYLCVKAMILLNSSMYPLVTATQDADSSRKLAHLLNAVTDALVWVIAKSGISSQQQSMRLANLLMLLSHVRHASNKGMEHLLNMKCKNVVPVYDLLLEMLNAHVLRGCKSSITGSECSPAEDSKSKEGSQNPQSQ
How it was run: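 Antagonist mode: compounds added to beta-lactamase reporter HEK293T ER-beta-UAS cells stimulated with E2 (1nM final), 16 hr at 37C. LiveBLAzer B/G FRET substrate, 2 hours room temperature, fluorescence read-out.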

[14] = qHTS RealTime-Glo MT Cell Viability Assay in HepG2 cells - 0 hour (AID 1224889); note: nearly all actives have a fitted effect of over 50% in size
How it was run: as §1

[15] = qHTS assay to identify small molecule antagonists of the estrogen receptor alpha (ER-alpha) signaling pathway using the BG1 cell line in the presence of 0.1 nM 17-beta-estradiol - cell viability counter screen (AID 1259241); note: nearly all actives have a fitted effect of over 40% in size
How it was run: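 Measures cytotoxicity alongside the ER-alpha antagonist readout: VM7Luc4E2 cells, charcoal-stripped serum, 0.1 nM 17beta-estradiol final, 22 hr compound incubation at 37C, CellTiter-Fluor fluorescence.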

[16] = target: Estrogen receptor (Homo sapiens) (UniProt P03372); assay: qHTS assay to identify small molecule antagonists of the estrogen receptor alpha (ER-alpha) signaling pathway using the BG1 cell line in the presence of 0.1 nM 17-beta-estradiol (AID 1259244); note: nearly all actives have a fitted effect of over 50% in size
Sequence of UniProt P03372 (P03372 whole entry, looked up): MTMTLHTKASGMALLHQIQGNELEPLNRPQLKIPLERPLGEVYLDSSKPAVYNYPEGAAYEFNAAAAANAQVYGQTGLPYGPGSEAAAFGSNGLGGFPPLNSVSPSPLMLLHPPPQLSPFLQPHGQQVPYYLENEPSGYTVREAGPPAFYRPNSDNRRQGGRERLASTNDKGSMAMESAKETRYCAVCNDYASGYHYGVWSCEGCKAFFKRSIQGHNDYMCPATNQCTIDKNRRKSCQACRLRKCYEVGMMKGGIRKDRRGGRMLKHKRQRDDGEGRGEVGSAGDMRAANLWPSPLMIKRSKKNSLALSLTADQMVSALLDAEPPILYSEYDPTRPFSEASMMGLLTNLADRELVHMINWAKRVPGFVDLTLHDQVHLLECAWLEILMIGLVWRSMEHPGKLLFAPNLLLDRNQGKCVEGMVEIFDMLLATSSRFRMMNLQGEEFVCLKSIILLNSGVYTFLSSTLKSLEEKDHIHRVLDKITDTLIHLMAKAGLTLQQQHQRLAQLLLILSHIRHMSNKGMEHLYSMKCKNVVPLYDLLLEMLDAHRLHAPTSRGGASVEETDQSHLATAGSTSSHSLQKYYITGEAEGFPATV
How it was run: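 Cells: VM7Luc4E2, endogenous ER-alpha, 4x ERE-luc stable. Pre-culture 5 d, phenol red-free, charcoal-stripped FBS. Plated 24 h, compound + E2 0.1 nM final, 22 h 37C/5% CO2. Readout ONE-Glo luminescence.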

[17] = target: Estrogen receptor beta (Homo sapiens) (UniProt Q92731); assay: qHTS assay to identify small molecule agonists of the estrogen receptor beta (ER-beta) signaling pathway (AID 1259377; active = well fitted activation curve with a large enough effect in the signal ratio in the repeat runs, not every such curve was filed as active; inconclusive = weak or mixed curves, or effect the other way; the % refers to the signal ratio); settings: ER-beta-UAS-bla HEK293T, beta-lactamase FRET ratio, 16 h; series mostly up to 92.4 µM
How it was run: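 In HEK293T cells bearing a UAS-beta-lactamase reporter under ER-beta control, DMSO-delivered compounds were incubated for 16 hr at 37C. Activity was detected as fluorescence 2 hours after LiveBLAzer B/G FRET substrate addition.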
Potency is the fitted concentration of half-maximal effect; tags give direction and shape of the fitted curve or compound fluorescence and quenching.

Row | SMILES | Potency [1] | Potency [2] | Potency [3] | Potency [4] | Potency [5] | Potency [6] | Potency [7] | Potency [8] | Potency [9] | Potency [10] | Potency [11] | Potency [12] | Potency [13] | Potency [14] | Potency [15] | Potency [16] | Potency [17]
1 | COc1cc(-c2ccc(N)c(OC)c2)ccc1N | inconclusive: 37.1 µM [cytotoxic, partial curve, poor fit] | inconclusive: 37.1 µM [cytotoxic, partial curve] | inconclusive: 52.5 µM [cytotoxic, single point] | inconclusive: 34 µM [inhibitor, partial curve, poor fit] | inconclusive: 9.58 µM [cytotoxic, partial curve] and inconclusive: 68.6 µM [cytotoxic, single point] and inconclusive: 58.3 µM [cytotoxic, partial curve, poor fit] | inconclusive: 24.3 µM [cytotoxic, partial curve] | inconclusive: 12.2 µM [inhibitor, full curve] | active: 52 µM |  |  |  |  |  |  |  |  | 
2 | O=S1OC[C@@H]2[C@H](CO1)[C@]1(Cl)C(Cl)=C(Cl)[C@@]2(Cl)C1(Cl)Cl (stereo partly specified) | inconclusive: 61.6 µM [cytotoxic, single point] | inconclusive: 49 µM [cytotoxic, partial curve] | inconclusive: 43.6 µM [cytotoxic, partial curve, poor fit] | inactive |  |  |  |  | inconclusive: 54.9 µM [activator, single point] | inconclusive: 54.9 µM [activator, partial curve, poor fit] |  |  |  |  |  |  | 
3 | CC(C)(C)CC(C)(C)c1ccc(O)cc1 | active: 34.7 µM and inconclusive: 19 µM [cytotoxic, partial curve, poor fit] | inconclusive: 19.5 µM [cytotoxic, full curve] | active: 34.7 µM and inconclusive: 16.9 µM [cytotoxic, partial curve] | inconclusive: 34.4 µM [inhibitor, partial curve] | active: 48.6 µM |  | inconclusive: 33.5 µM [inhibitor, partial curve, poor fit] | inconclusive: 48.6 µM [cytotoxic, partial curve, poor fit] |  |  | inconclusive: 61.1 µM [cytotoxic] | active: 61.1 µM | inconclusive: 68.6 µM [cytotoxic] and inconclusive: 1.33 µM [inhibitor, full curve] |  |  |  | 
4 | C[C@@H]1CC[C@@]2(OC1)O[C@H]1[C@@H](O)[C@H]3[C@@H]4CC[C@H]5C[C@@H](O[C@@H]6O[C@H](CO)[C@H](O[C@@H]7O[C@H](CO)[C@@H](O)[C@H](O[C@@H]8OC[C@@H](O)[C@H](O)[C@H]8O)[C@H]7O[C@@H]7O[C@H](CO)[C@@H](O)[C@H](O[C@@H]8O[C@H](CO)[C@@H](O)[C@H](O)[C@H]8O)[C@H]7O)[C@H](O)[C@H]6O)[C@H](O)C[C@]5(C)[C@H]4CC[C@]3(C)[C@H]1[C@@H]2C | active: 18.4 µM | active: 11.6 µM | active: 6.55 µM |  |  |  |  |  |  | active: 13.1 µM | active: 23 µM | active: 29 µM | inconclusive: 29 µM [cytotoxic] | active: 23.2 µM | active: 29 µM | active: 57.8 µM | inconclusive: 64.9 µM [falling, partial curve, poor fit]
5 | CN(C)c1ccc(N=O)cc1 | active: 55.1 µM and active: 43.6 µM | active: 15.5 µM and active: 24.5 µM |  | inconclusive: 24.3 µM [inhibitor, partial curve] |  | active: 24.4 µM and active: 27.3 µM | inconclusive: 4.34 µM [inhibitor] and active: 15.4 µM | active: 43.4 µM and active: 43.3 µM |  |  |  |  |  | inconclusive: 7.79 µM [cytotoxic, partial curve] and inconclusive: 9.77 µM [cytotoxic, partial curve, poor fit] | active: 61.3 µM and inconclusive: 54.5 µM [cytotoxic, partial curve] | active: 43.4 µM | 
6 | CCCCCCCCCCCCCCn1cc[n+](C)c1 | active: 39 µM and active: 54.4 µM | inconclusive: 54.9 µM [cytotoxic, single point] | inconclusive: 61.8 µM [cytotoxic, single point] and inconclusive: 61 µM [cytotoxic, single point] and inconclusive: 54.9 µM [cytotoxic, single point] | inconclusive: 38.5 µM [inhibitor, partial curve, poor fit] |  | inconclusive: 43.2 µM [cytotoxic, partial curve] | active: 122 nM and active: 42.8 nM and inconclusive: 43.2 µM [inhibitor, partial curve] | inconclusive: 68.5 µM [cytotoxic, single point] |  |  | active: 30.7 µM and active: 34 µM | inconclusive: 68.7 µM [cytotoxic, partial curve, poor fit] and inconclusive: 54.4 µM [cytotoxic, partial curve, poor fit] | inconclusive: 77.1 µM [cytotoxic, single point] and inconclusive: 76.1 µM [cytotoxic, single point] |  | inconclusive: 67.8 µM [cytotoxic, single point] and inconclusive: 68.5 µM [cytotoxic, single point] |  | inconclusive: 27.4 µM [inhibitor, partial curve, poor fit] and inconclusive: 76.1 µM [cytotoxic, single point]
